Laboratory results from PubChem BioAssay AID1745853 (National Center for Advancing Translational Sciences (NCATS), 2022).
This is one part of the list. The main result of the screen is listed elsewhere. These columns were measured beside it and carry no call.

Columns and labels:
Experiment in all cases: Primary Screen for Target Class Profiling of Small Molecule Inhibitors of Methyltransferases
[1] = molecular target: Glycine N-methyltransferase (Homo sapiens) (UniProt Q14749); conditions: purified enzyme, MTase-Glo SAH luminescence; measured here: GNMT inhibition; at 40 µM; stronger effect = lower value
How it was run: (§1)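 Each enzyme was assayed with SAM and its substrate. SAH formation detected by MTase-Glo luminescence; single-point 40 uM screen[…].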

[2] = molecular target: Guanidinoacetate N-methyltransferase (Homo sapiens) (UniProt Q14353); conditions: purified enzyme, MTase-Glo SAH luminescence; measured here: GAMT inhibition; at 40 µM; stronger effect = lower value
How it was run: as §1

[3] = molecular target: Histamine N-methyltransferase (Homo sapiens) (UniProt P50135); conditions: purified enzyme, MTase-Glo SAH luminescence; measured here: HNMT inhibition; at 40 µM; stronger effect = lower value
How it was run: as §1

[4] = molecular target: Nicotinamide N-methyltransferase (Homo sapiens) (UniProt P40261); conditions: purified enzyme, MTase-Glo SAH luminescence; measured here: NNMT inhibition; at 40 µM; stronger effect = lower value
How it was run: as §1

[5] = molecular target: Phenylethanolamine N-methyltransferase (Homo sapiens) (UniProt P11086); conditions: purified enzyme, MTase-Glo SAH luminescence; measured here: PNMT inhibition; at 40 µM; stronger effect = lower value
How it was run: as §1
% is scaled to controls: 0 for no effect and ±100 for the full control effect.

| SMILES | activity change, negative = inhibition [1] [%] | activity change, negative = inhibition [2] [%] | activity change, negative = inhibition [3] [%] | activity change, negative = inhibition [4] [%] | activity change, negative = inhibition [5] [%] |
| --- | --- | --- | --- | --- | --- |
| Cc1ccc(C(=O)Cn2nc3n(C(C)C)c(=O)c4ccc(C(=O)NCC(C)C)cc4n3c2=O)cc1 | 0.517 | 0 | 4.22 | -3.2 | 3.28 |
| Cn1nnc2cc(CNC(=O)c3cccnc3)ccc21 | 5.66 | 0.038 | 0.767 | -0.147 | 2.3 |
| Cc1cccc(-c2ocnc2C(=O)N2CC[C@H](CO)[C@H](NC(=O)C3CC3)C2)c1 | 1.97 | -1.69 | 3.02 | -1 | 5.12 |
| Cc1ccc(CNC(=O)Cn2nc3n(CCc4ccccc4)c(=O)c4ccccc4n3c2=O)cc1 | 5.01 | 1.56 | 8.72 | -2.04 | 1.67 |
| COc1ccc2nccc(C(=O)CC[C@@H]3CCN(CC#Cc4cc(F)cc(F)c4F)C[C@@H]3C(=O)O)c2c1 | -20.4 | 2.87 | 7.14 | -24.1 | -2.44 |
| COc1cccc(N2C(=O)c3cc4ccccc4n3CC2(C)C(=O)NCCC(C)C)c1 (stereo not given) | 1.97 | 3.87 | -1.85 | 4.97 | 0.4 |
| CO/N=C(/C(=O)N[C@@H]1C(=O)N2C(C(=O)O)=C(Cn3nnc(C)n3)CS[C@H]12)c1csc(N)n1 | 1.36 | 3.18 | 11.9 | -7.92 | 3.75 |
| O=c1c2ccccc2n2c(-c3cc(Cl)ccc3O)nnc2n1Cc1ccc(F)cc1 | -17.3 | -11.5 | -5.74 | -33.4 | -15.5 |
| CCOc1ccc(N2C(=O)c3cc(C(C)(C)C)nn3CC2(C)C(=O)NCc2ccccc2)cc1 (stereo not given) | -0.663 | 0 | 0.328 | 4.77 | -1.06 |
| C=C1C(=O)O[C@@H]2/C=C(/C)CC3C=C(C[C@H](OC(=O)/C(C)=C\C)[C@@H]12)C(=O)O3 (stereo not given in full) | -3.12 | -3.98 | 1.65 | -12.8 | 2.55 |
| CC(C)N1C(=O)C2(CCCC2)C1C(=O)Nc1ccncc1 (stereo not given) | -5.15 | -7.04 | -5.38 | -16.5 | -8.2 |
| Cc1cc2c(s1)Nc1ccccc1N=C2N1CCN(C)CC1 | 5.45 | 8.21 | 13.1 | -13.2 | 3.65 |
| CCCn1c(=O)c2cc(F)ccc2n2c(SCC(=O)Nc3ccccc3Cl)nnc12 | -9.26 | 3.5 | 8.29 | -7.15 | 1.65 |
| O=C(O)CC1CCCc2ccccc2C1O (stereo not given) | 4.83 | 14.3 | 9.51 | -0.992 | 10.5 |
| CC(C)CCNC(=O)C1(C)Cn2c(cc3ccccc32)C(=O)N1Cc1cccc(Br)c1 (stereo not given) | -4.96 | 1.63 | -3.79 | -8.74 | -5.93 |
| CC1(C(=O)Nc2ccccc2F)COCc2cnc(Nc3ccccc3)nc21 (stereo not given) | -11.2 | -5.85 | -9.07 | -10.8 | 0.015 |
| CN(Cc1ccc(-n2cccn2)cc1)CC1CCN(CCc2ccc(F)cc2)CC1 | -7.63 | -10.2 | -11.9 | -21.7 | -20.9 |
| Cc1n[nH]c(C)c1CNc1cc(C2CC(O)C2)ncn1 (stereo not given) | -0.822 | -8.32 | 2.67 | -3 | 2.05 |
| Cc1ccc(-c2nnn3c2nc(NCc2ccc(F)cc2)c2ccccc23)cc1 | -1.08 | 4.56 | 0.836 | 1.36 | -5.37 |
| CC1(C(=O)NC2CCCCCC2)Cn2nc(-c3ccco3)cc2C(=O)N1Cc1ccco1 (stereo not given) | 2.83 | -11.7 | 8.82 | -3.37 | 0.3 |
| C=Cc1ccc(Cn2nc3n(CCC)c(=O)c4ccccc4n3c2=O)cc1 | -5.43 | 4.25 | 2.13 | -15 | -1.06 |

| SMILES | activity change, negative = inhibition [1] [%] | activity change, negative = inhibition [2] [%] | activity change, negative = inhibition [3] [%] | activity change, negative = inhibition [4] [%] | activity change, negative = inhibition [5] [%] |
| --- | --- | --- | --- | --- | --- |
| Cc1cccc(N2C(=O)c3cc4occc4n3CC2(C)C(=O)NC2CCCC(C)C2C)c1C (stereo not given) | -3.27 | 2.14 | -0.89 | -6.98 | -4.84 |
| CCOc1ccc(-c2cc3n(n2)CC(C)(C(=O)NC2CCCCC2)N(C2CCCC2)C3=O)cc1 (stereo not given) | -14.8 | 2.4 | -5.51 | -2.11 | -3.51 |
| Cn1c(=O)c2ccc(C(=O)NC3CCCC3)cc2n2c(=O)n(Cc3ccccc3F)nc12 | 2.53 | 0 | 1.56 | 0.105 | 3.94 |
| CN1C(=O)C(Cc2c[nH]c3ccccc23)NC1=S (stereo not given) | 2.65 | 5.99 | 0.139 | -13 | -5.82 |
| CCC[C@H](N[C@H]1CCc2cc(F)cc(F)c2C1)C(=O)Nc1cn(C(C)(C)CNCC(C)(C)C)cn1 | -0.562 | 2.05 | -3.45 | -17.9 | -14.7 |
| O=C(CCc1nnc2n(Cc3ccc(F)cc3)c(=O)c3ccccc3n12)NCc1ccccc1Cl | -7.55 | 3.92 | 2.83 | -4.31 | 1.25 |
| O=[S+]([O-])(c1cccc(C(F)(F)F)c1)N1CC(CNc2cccnc2)C2(CN(c3ccccc3)C2)C1 (stereo not given) | -8.83 | -9.5 | -15.8 | -11 | -8.32 |
| Cc1ccc(NC(=O)CSc2nnc3[nH]c(=O)c(C)nn23)cc1C | 1.28 | 0 | -1.55 | -2.94 | -2.58 |
| COc1ccc(N(C(=O)c2ccncc2)S(=O)(=O)c2ccc3c(c2)n(C)c(=O)n3C)cc1 | -2.05 | 2.35 | 1.8 | 6.67 | -2.2 |
| CCCCOc1ccccc1-c1cc2n(n1)CC(C)(C(=O)NC1CCCCC1)N(CCC)C2=O (stereo not given) | 1.06 | 5.05 | -0.834 | 4.27 | -2.96 |
| CCCn1c(=O)c2ccccc2n2c(SCC(=O)Nc3ccccc3CC)nnc12 | 0.677 | 0 | 3.18 | 5.59 | 5.5 |
| CCOC(=O)c1cc2n(n1)CC(C)(C(=O)NCc1ccccc1)N(c1ccc(OC)cc1)C2=O (stereo not given) | 7.18 | 0 | 3.29 | 5.77 | 3.82 |
| Cc1ccc(Cn2c(=O)c3ccccc3n3c(=O)n(CC(=O)Nc4ccc(Cl)cc4)nc23)cc1 | 7.75 | 3.91 | 11 | 8.44 | 5.01 |
| O=C(NCc1cccc(F)c1)c1nc2c(o1)CCN(CC1CCCC1)CC2 | -11.9 | -7.95 | -7.88 | -13 | -58.1 |
| O=C1CN(Cc2c(F)cccc2Cl)S(=O)(=O)c2ccccc2N1Cc1ccc(F)cc1 | -7.19 | 0 | -2.56 | -15 | -11.4 |
| CCNC(=O)[C@H]1O[C@@H](n2cnc3c(N)nc(NCCc4ccc(CCC(=O)O)cc4)nc32)[C@H](O)C1O (stereo not given in full) | -10.9 | -10.4 | 3.46 | -15.2 | -7.89 |
| Cc1ccc(S(=O)(=O)N2CCCC(CNC(=O)c3cccs3)C2)cc1 (stereo not given) | -4.09 | -5.15 | -1.36 | -13 | -5.36 |
| CCOC(=O)c1cc2n(n1)CC(C)(C(=O)NC1CCCC1)N(c1ccccc1C)C2=O (stereo not given) | 3.61 | 1.42 | 2.53 | 5.69 | 1.63 |
| CCCn1c(=O)c2ccc(C(=O)NC(C)C)cc2n2c(SCC(=O)Nc3cccc(C)c3)nnc12 | 5.54 | 0 | 7.84 | 7.8 | 5.95 |
| O=C1CN(Cc2ccc(-c3ccsc3)cc2)CCN1c1cc(Cl)ncn1 | -8.87 | -5.11 | -5.72 | -12.9 | -13.5 |
| Nc1nc(OCC2CCCCC2)c2[nH]cnc2n1 | -9.16 | 2.28 | -5.26 | -19.5 | 0.167 |

| SMILES | activity change, negative = inhibition [1] [%] | activity change, negative = inhibition [2] [%] | activity change, negative = inhibition [3] [%] | activity change, negative = inhibition [4] [%] | activity change, negative = inhibition [5] [%] |
| --- | --- | --- | --- | --- | --- |
| CCOC(=O)N1CCN(C(=O)c2sc(C(C)C)nc2C)CC1 | -1.33 | -1.98 | 0.89 | 2.31 | 6.94 |
| O=C1CC(c2nc(-c3ccc4nc[nH]c4c3)no2)CN1Cc1cccnc1 (stereo not given) | -4 | -8.95 | -12.9 | -11.6 | -1.5 |
| CCOc1ccc(CN2C(=O)c3cc(C(=O)OC)nn3CC2(C)C(=O)NC2CCC(C)CC2)cc1 (stereo not given) | 7.26 | 1.3 | 11.4 | 8.13 | 6.86 |
| COc1ccc2cc3n(c2c1)CC(C)(C(=O)NC1CCCC1)N(Cc1cccs1)C3=O (stereo not given) | -3.28 | 5.3 | 3.06 | -7.46 | -0.306 |
| Cn1c(=O)c2ccc(C(=O)NC3CCCCC3)cc2n2c(=O)n(CC(=O)Nc3ccccc3)nc12 | -3.42 | 0.068 | 0.579 | -1.91 | -0.533 |
| NC(=O)CC[C@H](N)C(=O)O | -4.5 | 2.54 | -0.704 | -3.64 | 8.98 |
| CC1(C(=O)NC2CCCCC2)Cn2c(ccc2-c2ccccc2)C(=O)N1CCc1ccc(Cl)cc1 (stereo not given) | -0.463 | 2.86 | -0.065 | -2.34 | 0.664 |
| CN1CCN(CCCNC(=O)CCc2nnc3n(Cc4ccccc4Cl)c(=O)c4ccccc4n23)CC1 | -4.07 | 3.75 | -11.5 | 10.3 | -0.929 |
| CCCn1c(=O)c2cc(F)ccc2n2c(SCC(=O)Nc3ccc(C)cc3Cl)nnc12 | -5.53 | 0 | 5.85 | -0.288 | 1.76 |
| CCOC(=O)c1ccc(Nc2ncnc3ccc(Br)cc23)cc1 | -5.32 | 0 | 1.48 | -0.947 | -4.19 |
| CC(C)(C)NC(=O)[C@@H](c1cccnc1)N(C(=O)c1ccco1)c1ccc(C(C)(C)C)cc1 | 1.49 | 9.8 | 2.64 | -14 | -3.47 |
| CC1(C)NC(C(=O)O)Cc2c1[nH]c1ccccc21 (stereo not given) | 5.38 | -3.28 | -2.76 | 3.4 | -5 |
| CCN(CC)CCOc1ccc(Nc2ncc3cc(-c4c(Cl)cccc4Cl)c(=O)n(C)c3n2)cc1 | -18.8 | 8.52 | -72.3 | -12.6 | -3.47 |
| Cc1cccc(NC(=O)N2CCCC(Cc3noc(-c4cnccn4)n3)C2)c1 (stereo not given) | -0.922 | 0.313 | 0.945 | -2.3 | -1.73 |
| CN1CCN(Cc2nnc(C(=O)N3CCC[C@@H]3c3ccc(Br)cc3)n2Cc2ccccc2)CC1 | -5.26 | -6.67 | -3.92 | -15.3 | 1.78 |
| COCCN1Cc2nc(-c3ccsc3)ccc2OCC1=O | -4.24 | -2.42 | 0.838 | -8.74 | -2.46 |
| Cc1ccc(NC(=O)CCc2nnc3n(Cc4ccc(Cl)cc4)c(=O)c4ccccc4n23)cc1C | 7.03 | 4.52 | 7.16 | 6.1 | -0.409 |
| CCCn1c(=O)c2ccc(C(=O)NC(C)C)cc2n2c(=O)n(Cc3ccccc3)nc12 | 5.06 | 2.23 | 10.1 | -2.23 | 5.77 |
| COc1ccc(CCC(=O)Nc2ccc3c(c2)C(=O)N(C)C2=NCCN23)cc1 | -5.41 | -4.24 | 4.8 | -4.89 | -7.26 |
